Among all 260,000 compounds or so, about 150 (0.058%) were called active. Inconclusive means that the source gave no clear call. Such entries were picked first, then a sample of the others. The call rests on the fitted dose curve; in most records, active means well fitted inhibition curve with a large enough effect; inconclusive means small, poorly fitted or top-dose-only effect; inactive means no such curve, though single readings can be large or run the other way. No potency is given beside an inconclusive call; the fits are too rough.
target: Pyruvate kinase PKM (Homo sapiens) (UniProt P14618); test: qHTS Assay for Inhibitors of Human Muscle isoform 2 Pyruvate Kinase; details: purified PKM2, ATP generation, Kinase-Glo luminescence; series mostly up to 57.5 µM; further: nearly all actives have a fitted effect of over 60% in size
Method in brief: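 Enzyme run at intermediate activity with final 0.1 mM ADP, 0.5 mM PEP (50 mM imidazole pH7.2, 50 mM KCl, 7 mM MgCl2), incubated 1 h at r.t. ATP formed read by Kinase-Glo luminescence, normalized to no-enzyme (full inhibition) and uninhibited wells.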
Potency means the concentration at half of the fitted maximal effect; tags describe the fitted curve by direction and shape.

Sequence of UniProt P14618 (P14618 whole entry, looked up, canonical isoform): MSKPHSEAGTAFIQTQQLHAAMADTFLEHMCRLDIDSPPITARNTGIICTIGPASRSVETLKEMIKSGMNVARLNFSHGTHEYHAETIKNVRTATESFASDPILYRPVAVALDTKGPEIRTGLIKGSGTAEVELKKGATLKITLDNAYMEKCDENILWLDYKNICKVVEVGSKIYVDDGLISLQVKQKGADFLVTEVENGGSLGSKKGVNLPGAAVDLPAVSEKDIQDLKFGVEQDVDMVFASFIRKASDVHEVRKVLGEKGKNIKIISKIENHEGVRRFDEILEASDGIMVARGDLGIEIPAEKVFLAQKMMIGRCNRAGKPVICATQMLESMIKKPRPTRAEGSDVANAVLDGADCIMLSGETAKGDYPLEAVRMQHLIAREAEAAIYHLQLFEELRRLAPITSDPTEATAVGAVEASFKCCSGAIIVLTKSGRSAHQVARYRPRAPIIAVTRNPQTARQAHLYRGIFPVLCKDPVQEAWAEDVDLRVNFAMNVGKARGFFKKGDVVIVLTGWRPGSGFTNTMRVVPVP

Row | SMILES | Potency
1 | O=C(O)c1ccc(NC(=S)NC(=O)c2ccc(-c3ccccc3)cc2)cc1 | inactive
2 | CN(C)c1ccc(CNS(=O)(=O)c2ccc3c(c2)C(C)(C)C(=O)N3C)cc1 | inactive
3 | COC(=O)Nc1nnc(-c2ccccc2Cl)s1 | inconclusive [falling, full curve]
4 | COC(=O)c1ccc2c(c1)C(C)(C)C(/C=C/c1ccccc1O)=[N+]2C | inconclusive [falling, single point]
5 | O=C(CNS(=O)(=O)c1ccc2ccccc2c1)NCCc1ccccn1 | inconclusive [falling, single point]
6 | COc1ccc(-c2cc3nc(CCl)[nH]c(=O)c3s2)cc1 | inconclusive [falling, single point]
7 | O=C(c1cc(S(=O)(=O)N2CCOCC2)ccc1Cl)N1CCN(c2ccccn2)CC1 | inactive
8 | CS(=O)(=O)Nc1cccc(C2=NN(S(=O)(=O)c3ccccc3)C(c3ccco3)C2)c1 (centres undefined) | inactive
9 | O=C(Nc1ncc([N+](=O)[O-])s1)c1ccc2c(c1)OCO2 | inconclusive [falling, partial curve]
10 | COc1ccc(-n2nnc3c(=O)n(CC(=O)Nc4cc(C)on4)cnc32)cc1 | inactive
11 | Cc1ccc(NC(=O)COC(=O)CCC(=O)c2cccs2)cc1C | inconclusive [falling, single point]
12 | CC(NC(=O)CC1Sc2ccccc2NC1=O)c1ccccc1 (centres undefined) | inconclusive [falling, single point]
13 | O=C(NCc1ccco1)c1sc(=S)n2c1[nH]c(=O)c1ccccc12 | inconclusive [falling, single point]
14 | COc1ccc(C(=O)NNC(=O)c2ccccn2)cc1 | active: 3.55 µM
15 | CCCCn1c(N(CCOC(C)=O)C(C)=O)nc2ccccc21 | inconclusive [falling, single point]
16 | COc1c(C)cc(S(=O)(=O)NCCN2CCOCC2)c(C)c1C | inconclusive [falling, single point]
17 | O=C(NNc1nc2c(F)cccc2s1)c1ccccc1 | inconclusive [falling, single point]
18 | COc1ccc(-c2nc3ccccc3s2)cc1 | inconclusive [falling, single point]
19 | CCCn1c(-c2ccc(F)cc2)nc2c(NCCN(C)C)nc(C)nc21 | inconclusive [falling, partial curve]
20 | CCOc1ccc(-c2ccc(SCC)nn2)cc1 | inconclusive [falling, single point]
21 | Cc1n[nH]c(=O)nc1N/N=C/c1cccs1 | inconclusive [falling, single point]
22 | COc1ccc2cc3c(N)c(C(=O)NCc4ccco4)sc3nc2c1 | inconclusive [falling, single point]
23 | COc1ccc(S(=O)(=O)N2CCN(C(=O)c3cccs3)CC2)cc1 | inactive
24 | NC(=O)c1ccc(NC(=O)COC(=O)c2ccccc2Nc2ccccc2)cc1 | inconclusive [falling, single point]
25 | COc1cc(SC)ccc1C(=O)Nc1nc2ccccc2[nH]1 | inconclusive [falling, partial curve]

Row | SMILES | Potency
26 | COc1cc(/C=C2\C(=N)N3N=CSC3=NC2=O)cc(Br)c1OC(=O)c1ccco1 | inconclusive [falling, single point]
27 | COC(=O)c1sccc1NC(=O)Nc1ccc(C)cc1 | inconclusive [falling, partial curve]
28 | Cc1cc(-c2nc3ccccc3[nH]2)ccc1N | inconclusive [falling, single point]
29 | Cc1ccc(NC2=Nc3ccccc3CS2)cc1 | inconclusive [falling, single point]
30 | Cc1nnsc1C(=O)NNc1ccc(C(C)C)cc1 | inconclusive [falling, single point]
31 | CC(=O)CSc1ccc(-c2nc3ccccc3[nH]2)cn1 | inconclusive [falling, single point]
32 | Cc1nc2nc(-c3ccccc3)cn2nc1C | inconclusive [falling, partial curve]
33 | c1ccc(-c2nc3cc4ccccc4cc3[nH]2)nc1 | inconclusive [falling, partial curve]
34 | CC(C)CCn1cnc2c1c(=O)n(CC(=O)NC(N)=O)c(=O)n2Cc1ccccc1 | inactive
35 | Cc1ccc(C2CC(c3cccc(C)c3)n3ncnc3N2)cc1 (centres undefined) | inactive
36 | O=C(Nc1ccc(N2CCCCC2)cc1)c1ccccc1 | inconclusive [falling, partial curve]
37 | c1nc2sc3c(c2c2nnnn12)CCCC3 | inconclusive [falling, full curve, poor fit]
38 | CN(Cc1ccon1)C(=O)CCc1nnc(CCCCc2ccccc2)o1 | inconclusive [falling, single point]
39 | COc1ccc(/C=C/C(=O)NC(=S)N2CCOCC2)cc1 | inconclusive [falling, single point]
40 | CCCCNC(=O)Nc1ccnn1C1CCCCC1 | inactive
41 | Cc1cc(C(=O)OCC(=O)NCc2ccc3c(c2)OCO3)c2ccccc2n1 | inconclusive [falling, single point]
42 | Cc1cc(C)n(CCC(=O)N2CCN(S(=O)(=O)c3ccc(C)c(C)c3)CC2)n1 | inactive
43 | COc1cc(OC)cc(C(=O)Nc2ccc(-n3cnnn3)c(C)c2)c1 | inconclusive [falling, partial curve]
44 | O=C(O)c1cccc(NC(=S)N/N=C/c2cccnc2)c1 | inconclusive [falling, single point]
45 | CC(=O)c1ccc(C(=O)NC2CCCN(Cc3ccccc3F)C2)cc1 (centres undefined) | inconclusive [falling, single point]
46 | COc1ccc(S(=O)(=O)N2CCOCC2)cc1NC(=O)COc1cccnc1[N+](=O)[O-] | inconclusive [falling, single point]
47 | CCOc1ccc(-n2c(C)cc(/C=N/N(C)C)c2C)cc1 | inconclusive [falling, single point]
48 | S=C(Nc1ccccc1Oc1ccccc1)NC1CCCC1 | inconclusive [falling, single point]
49 | CC(C)c1ccc(CN2CC(C(=O)Nc3ccccc3)CC2=O)cc1 (centres undefined) | inactive
50 | COc1ccc(CN(C)CC(O)COC(c2ccccc2)c2ccccc2)c(OC)c1OC (centres undefined) | inconclusive [falling, single point]

Row | SMILES | Potency
51 | CNc1c([N+](=O)[O-])cnn1-c1ccc(C)cc1 | inactive
52 | NC(=O)N/N=C/c1coc2ccc3ccccc3c2c1=O | inconclusive [falling, partial curve]
53 | COc1cccc(-c2nc(-c3ccccn3)no2)c1 | active: 14.1 µM
54 | CN(C)S(=O)(=O)c1cccc(NC(=O)CSc2cccc3cccnc23)c1 | inactive
55 | O=C(Nc1nc2ccccc2n1CCOc1ccccc1)c1ccco1 | inactive
56 | O=C(Nc1nc2ccc(F)cc2s1)c1ccccn1 | inconclusive [falling, single point]
57 | CCC(CC)C(=O)NCc1cccnc1 | inconclusive [falling, single point]
58 | O=[N+]([O-])c1ccc(NC2CCN(Cc3ccccc3)CC2)c([N+](=O)[O-])c1 | inconclusive [falling, single point]
59 | COc1cccc(-c2nn[nH]n2)c1O | inconclusive [falling, partial curve]
60 | Cc1ccc(S(=O)(=O)/N=C2/C=C(Sc3ncn[nH]3)C(=O)c3ccccc32)cc1 | inconclusive [falling, single point]
61 | Fc1ccc(-c2nc3n(n2)Cc2ccccc2-3)cc1 | inconclusive [falling, partial curve]
62 | COCC(=O)n1nc(-c2ccccc2)nc1NCc1ccc(N(C)C)cc1 | inconclusive [falling, single point]
63 | Cc1ccc2nc(-c3ccc4c(c3)OCCO4)cn2c1 | inconclusive [falling, single point]
64 | Cc1cc(O)ccc1NS(=O)(=O)c1ccc2c3c(cccc13)C(=O)N2 | inactive
65 | C/C(=N\NC(=O)C1=NNC(=O)C1C)c1cccs1 (centres undefined) | inconclusive [falling, partial curve]
66 | COc1c(O)c(O)cc2c1oc1c3cc(C)ccc3oc(=O)c21 | inactive
67 | COc1ccc(NC(=O)CSc2n[nH]c(N)n2)c([N+](=O)[O-])c1 | inactive
68 | COc1ccc(S(=O)(=O)Nc2cc(Sc3ncn[nH]3)c(O)c3ccccc23)cc1 | inconclusive [falling, single point]
69 | COC(=O)c1nn(-c2ccc3c(c2)OCO3)cc1O | inconclusive [falling, partial curve]
70 | CC(C)NS(=O)(=O)c1ccc(OCC(=O)N2CCN(c3ccccc3)CC2)cc1 | inconclusive [falling, single point]
71 | O=C(NCSc1ccncn1)c1ccccc1 | inconclusive [falling, partial curve, poor fit]
72 | COc1cccc(CC2(CO)CCCN(Cc3cn[nH]c3C3CCCCC3)C2)c1 (centres undefined) | inactive
73 | c1ccc(-c2noc(-c3ccco3)n2)nc1 | inconclusive [falling, partial curve]
74 | CCc1ccc(S(=O)(=O)/N=C2/C=C(Sc3ncn[nH]3)C(=O)c3ccccc32)cc1 | inconclusive [falling, single point]
